Data: article PMC12136788
The list shows a part of the results.

B1: chr2:1633824:1633925:-|3pUTR|ENSG00000130508|msi1|total|mutant (ssRNA)
RNA: GGGAGUUCUACAGUCCGACGAUCAUUUAAUUCUUUUAAAAUGAAAAAUUGGUGCUACUAUUAAAUUGCACAGUUGAAUCAUUCCGGCGCCUAAAUUGAUUUUGCCUCCCAACACCAUUUCUUUUUAAAUAAAGCAGGAUACCUCAACAGAGGAUUGAGCAUCA
B2: chr16:85089731:85089832:+|3pUTR|ENSG00000135709|msi1|FALSE|unique (ssRNA)
RNA: GGGAGUUCUACAGUCCGACGAUCUUGGAAGGUUUCCCUCCGGGGAAUGCCUCCCUGGAAUGUUCCAGAGACGGAACAUUCUCUAGAGACAACAGUCUGUGCUGCAGAUUGGUUGGAUCACAGAAUGUGUGUCUGGGGCAUUAUCAACAGAGGAUUGAGCAUCA
B3: chr2:135868693:135868794:-|CDS|ENSG00000076003|msi1|FALSE|unique (ssRNA)
RNA: GGGAGUUCUACAGUCCGACGAUCCCCAGAGCUUGUGAGCGGAACUUUUCUGUGCUUGGACUGUCAGACAGUGAUCAGGGAUGUAGAACAGCAGUUCAAAUACACACAGCCAAACAUCUGCCGAAAUCCAGUUUGUGCCAACAGCAACAGAGGAUUGAGCAUCA
B4: ENSG00000070961:be:win_4701|3pUTR|ENSG00000070961|bound_else_gene|NA|bound_elsewhere_windowed (ssRNA)
RNA: GGGAGUUCUACAGUCCGACGAUCUUUUCUAAUCUUUAGAGACCUUCACACAGCAUGAGGGCUGUUGGCAUUUUGAAAAAGGUUAAUAAGUAGAAGCAUACAUGUUUUCCUUUUGUUUUUGAAACUUGUUUGUAAACAUAAAUACAACAGAGGAUUGAGCAUCA
B5: chr2:32415991:32416109:+|CDS|ENSG00000115760|unk|total|mutant (ssRNA)
RNA: GGGAGUUCUACAGUCCGACGAUCUGACAUUUCUACUCUUGGACACCUGGUAAUAACCACUCAGGGAGGAUAUGUAAAAAUACCCGAUCUUUCAAACUUUGAAAUUUUGGCCAAAGUGGAGCCUCCCAAAAAGGAGGGCACUGACAACAGAGGAUUGAGCAUCA
B6: chr1:31365252:31365939:-|three_prime_utr|ENSG00000121769|control|control|control (ssRNA)
RNA: GGGAGUUCUACAGUCCGACGAUCAUCCAGUUCCAGUUCCCAUGGUGUAUGUGGUUUUUUUUUUUUUUUUUUAACUGCACUCAUAGGGUGCUCUGAGGUCAAUAAAGCAGAGCCAAGGCCACCCAGUUGCCUUUUUGCCUUUGGCAACAGAGGAUUGAGCAUCA
B7: ENSG00000136451:be:win_4251|3pUTR|ENSG00000136451|bound_else_gene|NA|bound_elsewhere_windowed (ssRNA)
RNA: GGGAGUUCUACAGUCCGACGAUCCUAAACAGUUGUAUUAGAUAAUCCUUAAAUCUGACAUCCAGCCUGUUACGCUCUAGGGCUCGCUGCUUGGCCUGCGUUUGCUUUUUAUUGUGUAUCCGUUCCCCUCCUACGGUGUGCUCCCAACAGAGGAUUGAGCAUCA
B8: chr8:30995801:30996592:-|three_prime_utr|ENSG00000172733|control|control|control (ssRNA)
RNA: GGGAGUUCUACAGUCCGACGAUCUUGUUUUUUUUAAUUCAUCAAGCCUUUCGUUUUCAAACCACCAUUUGUCAGCCUUGAGGUAGAGAGACAUAUAGAUUUGAAAAUACUUUCUUAAGAGAUCAUGUAACUAUAUAACUCUGACAACAGAGGAUUGAGCAUCA
B9: chr8:102207567:102207681:-|3pUTR|ENSG00000048392|unk|FALSE|unique (ssRNA)
RNA: GGGAGUUCUACAGUCCGACGAUCUAUUAAUUGCAAUGAUGUUGUAAUAAAAUACUCUCAUUUCCUUAAAAUAAUUGUGAUUCUAGGUCCUAGGAUCUAGAAUUAGAUCUUUGUAUUUUUAAUGCUUAGGGGAAGAAUAUAAGUCAACAGAGGAUUGAGCAUCA
B10: chr1:205657850:205659233:-|three_prime_utr|ENSG00000158715|control|control|control (ssRNA)
RNA: GGGAGUUCUACAGUCCGACGAUCACUUCCAGCACAUUGGGGUGGAGGGCCUGCCUCACUGGGUCCCAGCUCCCCGCUCCUGUUAGCCCCAUGGGGCUGCCGGGCUGGCCGCCAGUUUCUGUUGCUGCCAAAGUAAUGUGGCUCCAACAGAGGAUUGAGCAUCA
B11: chr20:1375301:1375603:-|CDS|ENSG00000088832|control|control|control (ssRNA)
RNA: GGGAGUUCUACAGUCCGACGAUCGGUAUGCUCUCUCAUUUGUUUUGUUUUGCUUUCUAGUAUUUACCUUUUAUAUUUUUUUAUAGGUGGCAUAUUUAUACGGUUCAAAAAUAAAAAAAGUGAAAAGUCUCACCCUCAUGCCAUCAACAGAGGAUUGAGCAUCA
B12: chr11:112070992:112071283:-|CDS|ENSG00000150773|control|control|control (ssRNA)
RNA: GGGAGUUCUACAGUCCGACGAUCAAUAAAAGGAAGCAUUCAAAGAAUGAAACAAAAUCUGAUGGGAAUCCAAACUGAUUCCAUAGAUUUAAGAGAAAAAAUGAGAAGGGGUAAGUUGAUGAUUGUAAAUGGAAAAUUAAACUGCAACAGAGGAUUGAGCAUCA
B13: chr1:51356092:51356193:-|3pUTR|ENSG00000085832|unk|total|mutant (ssRNA)
RNA: GGGAGUUCUACAGUCCGACGAUCUUCAGAGAUAAGGAAAAAUAUUUUGCACAGAUUUACUCCACUAUGGAAAAGGGAUGCUGCCGGUUGAACCAUUACCGCCUCAGAUUCGAUCUUUUCCUAACUAAAAAUAUUAAAGCCUCACAACAGAGGAUUGAGCAUCA
B14: chr11:35229396:35229958:+|3pUTR|ENSG00000026508|msi1|FALSE|unique (ssRNA)
RNA: GGGAGUUCUACAGUCCGACGAUCAUAUGUAUUCCUGAUCGCCAACCUUUCCCCCACCAGCUAAGGACAUUUCCCAGGGUUAAUAGGGCCUGGUCCCUGGGAGGAAAUUUGAAUGGGUCCAUUUUGCCCUUCCAUAGCCUAAUCCAACAGAGGAUUGAGCAUCA
B15: chr3:81489889:81489990:-|3pUTR|ENSG00000114480|msi1|FALSE|unique (ssRNA)
RNA: GGGAGUUCUACAGUCCGACGAUCUUGGUCUAAAUUAUGAGGUACCAAGAUUGUUUCUUUGUUUCUUUUUUUCAAAUUGUGUUUAGAAAUACUGUAAUAAAUAUGCAGUAGUGAUAUAAAGAAUUAUAUCCAAGGUAAUAUAAACAACAGAGGAUUGAGCAUCA
B16: chr8:6757792:6757893:+|3pUTR|ENSG00000155189|msi1|FALSE|unique (ssRNA)
RNA: GGGAGUUCUACAGUCCGACGAUCAUUUAUUACAACUUGACAGCUCCAAGCUCUUAUUACUAAAGUAUUUAGUAUCUUGCAGCUAGUUAAUAUUUCAUCUUUUGCUUAUUUCUACAAGUCAGUGAAAUAAAUUGUAUUUAGGAACAACAGAGGAUUGAGCAUCA
B17: chrX:51895182:51895295:+|CDS|ENSG00000179222|unk|FALSE|unique (ssRNA)
RNA: GGGAGUUCUACAGUCCGACGAUCAGUUCACAGCCCCCAACUGCCAAUGAGAUGGCUGACAUUCAGGUUUCAGCAGCUGCCGCUAGGCCUAAGUCAGCCUUUAAAGUCCAGAAUGCCACCACAAAAGGCCCAAAUGGUGUCUAUCAACAGAGGAUUGAGCAUCA
B18: chr1:67411267:67411372:-|3pUTR|ENSG00000142864|unk|total|mutant (ssRNA)
RNA: GGGAGUUCUACAGUCCGACGAUCAACUCAUUUCCAAACAUGUACCAUGUUUUAUAAACCUCUUGAUUUCCAGCAACAUACUACCGAAAACACCUGCUACUCAAAACACAACUUCUCAGUGUCAUCCAUUGCUGUCGUGAGAGACAACAGAGGAUUGAGCAUCA
B19: ENSG00000166181:stop:overlap|stop_codon|ENSG00000166181|stop_codon|NA|stop_codon (ssRNA)
RNA: GGGAGUUCUACAGUCCGACGAUCGUGGGAAAUAUAGCAGCAAUUUGGGCAACUUUAAUUAUGAGAGGAGCCUUCAGGGGAAGUAGAGGUGGCCGAGGUUGGGGCACACGAGGAAAUCGUAGUCGGGGAAGACUCUACUGAAUACAACAGAGGAUUGAGCAUCA
B20: chr7:17792983:17793084:-|3pUTR|ENSG00000071189|msi1|FALSE|unique (ssRNA)
RNA: GGGAGUUCUACAGUCCGACGAUCGACAUGCCUUAGGUAACUGCAGAAAUAGCAAAUUAAAUGAUUAAUGAGCUUAUUAGUCAUAGUAAACAUACAGAUUCCUAAUUCUAUGACAGUGUACAUAUAUGAAAAUAAAUGAUGAAACAACAGAGGAUUGAGCAUCA
B21: chr14:39032579:39032680:-|3pUTR|ENSG00000100934|msi1|total|mutant (ssRNA)
RNA: GGGAGUUCUACAGUCCGACGAUCUGAUUUUAUAAUGGUAAUUUUCAUGAUGAUAAUGUUUUUGGUUAUUUGGAAAGACCGUUCCGAGAUGAAAGGUUUUUUUGGGUAACAAUCCCGCAGCUGACAAAAAAUGUGAAAUUUCCACAACAGAGGAUUGAGCAUCA
B22: chr1:2308404:2308505:+|3pUTR|ENSG00000157933|unk|FALSE|unique (ssRNA)
RNA: GGGAGUUCUACAGUCCGACGAUCUUCUUUGCUUUUGUUUUCUUUGCGGUUGUUCUGUGUGCAUGGAUUCCACACCUCUGCCGUAGGUAGAUCCGUCAGCGGGCAUUAUUACCGUGUCUUGUAAAGGGUCGGUUUUGUUAUGCACAACAGAGGAUUGAGCAUCA

Each binder was assayed against MSI1 full-length (mouse, UniProt Q61474 1-362) (assay: nsRBNS (natural sequence RNA bind-n-seq); RBNS binding buffer (assumed for nsRBNS): 25 mM Tris pH 7.5, 150 mM KCl, 3 mM MgCl2, 0.01% Triton X-100, 500 ug/ml BSA, 20 U/ml SUPERase-In, 4 C; UNK is unkempt and MSI1 is Musashi-1; names of the RNAs are library labels; protein concentration not given here; high values mean tight binding).
Sequence of UniProt Q61474 (Q61474 whole entry): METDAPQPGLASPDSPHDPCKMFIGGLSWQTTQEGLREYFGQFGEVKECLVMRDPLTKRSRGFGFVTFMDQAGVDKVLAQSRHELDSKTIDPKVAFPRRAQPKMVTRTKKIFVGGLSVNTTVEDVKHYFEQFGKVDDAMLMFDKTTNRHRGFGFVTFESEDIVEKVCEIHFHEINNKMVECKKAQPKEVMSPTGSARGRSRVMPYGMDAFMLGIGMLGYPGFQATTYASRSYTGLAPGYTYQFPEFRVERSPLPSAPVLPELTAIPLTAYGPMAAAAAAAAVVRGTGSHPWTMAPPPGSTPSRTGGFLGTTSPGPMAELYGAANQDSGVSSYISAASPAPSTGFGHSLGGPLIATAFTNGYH

| Binder | binding signal |
| --- | --- |
| B1 | 0.556 enrichment R |
| B2 | 0.208 enrichment R |
| B3 | 0.599 enrichment R |
| B4 | 0.664 enrichment R |
| B5 | 0.316 enrichment R |
| B6 | 1.27 enrichment R |
| B7 | 1.01 enrichment R |
| B8 | 0.712 enrichment R |
| B9 | 0.592 enrichment R |
| B10 | 0.483 enrichment R |
| B11 | 2.12 enrichment R |
| B12 | 0.603 enrichment R |
| B13 | 0.332 enrichment R |
| B14 | 0.686 enrichment R |
| B15 | 2.36 enrichment R |
| B16 | 1.46 enrichment R |
| B17 | 0.449 enrichment R |
| B18 | 0.416 enrichment R |
| B19 | 1.94 enrichment R |
| B20 | 2.96 enrichment R |
| B21 | 0.316 enrichment R |
| B22 | 0.32 enrichment R |
